In all, about 360,000 compounds went through this assay and about 16,000 (4.4%) were called active. Inconclusive results, whose numbers are uncertain, are shown with a selection of clear calls. The call rests on the fitted dose curve; in most records, active means well fitted inhibition curve with a large enough effect; inconclusive means small, poorly fitted or top-dose-only effect; inactive means no such curve, though single readings can be large or run the other way. A potency beside an inconclusive call is a rough fit, not a confirmed value.
Molecular target: Bromodomain adjacent to zinc finger domain protein 2B (Homo sapiens) (UniProt Q9UIF8)
Test: qHTS Assay for Inhibitors of BAZ2B; further: nearly all actives have a fitted effect of over 60% in size
Settings: AlphaScreen BAZ2B-H3K14Ac peptide displacement; activity change, negative = inhibition: at 114 µM (top of the series)
Procedure, shortened: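 Compounds, titrated to a top concentration of 110 uM, were incubated 30 min at room temperature with preformed BAZ2B/acetyl-K14 H3 peptide complex (50 nM each). Proximity signal was measured by AlphaScreen after 20 min with beads.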
On the % scale 0 is the no-effect control and ±100 the full control effect; potency means the concentration at half of the fitted maximal effect; tags describe the fitted curve by direction and shape.

Chain of UniProt Q9UIF8 (Q9UIF8 whole entry, looked up, the tested form may be a part): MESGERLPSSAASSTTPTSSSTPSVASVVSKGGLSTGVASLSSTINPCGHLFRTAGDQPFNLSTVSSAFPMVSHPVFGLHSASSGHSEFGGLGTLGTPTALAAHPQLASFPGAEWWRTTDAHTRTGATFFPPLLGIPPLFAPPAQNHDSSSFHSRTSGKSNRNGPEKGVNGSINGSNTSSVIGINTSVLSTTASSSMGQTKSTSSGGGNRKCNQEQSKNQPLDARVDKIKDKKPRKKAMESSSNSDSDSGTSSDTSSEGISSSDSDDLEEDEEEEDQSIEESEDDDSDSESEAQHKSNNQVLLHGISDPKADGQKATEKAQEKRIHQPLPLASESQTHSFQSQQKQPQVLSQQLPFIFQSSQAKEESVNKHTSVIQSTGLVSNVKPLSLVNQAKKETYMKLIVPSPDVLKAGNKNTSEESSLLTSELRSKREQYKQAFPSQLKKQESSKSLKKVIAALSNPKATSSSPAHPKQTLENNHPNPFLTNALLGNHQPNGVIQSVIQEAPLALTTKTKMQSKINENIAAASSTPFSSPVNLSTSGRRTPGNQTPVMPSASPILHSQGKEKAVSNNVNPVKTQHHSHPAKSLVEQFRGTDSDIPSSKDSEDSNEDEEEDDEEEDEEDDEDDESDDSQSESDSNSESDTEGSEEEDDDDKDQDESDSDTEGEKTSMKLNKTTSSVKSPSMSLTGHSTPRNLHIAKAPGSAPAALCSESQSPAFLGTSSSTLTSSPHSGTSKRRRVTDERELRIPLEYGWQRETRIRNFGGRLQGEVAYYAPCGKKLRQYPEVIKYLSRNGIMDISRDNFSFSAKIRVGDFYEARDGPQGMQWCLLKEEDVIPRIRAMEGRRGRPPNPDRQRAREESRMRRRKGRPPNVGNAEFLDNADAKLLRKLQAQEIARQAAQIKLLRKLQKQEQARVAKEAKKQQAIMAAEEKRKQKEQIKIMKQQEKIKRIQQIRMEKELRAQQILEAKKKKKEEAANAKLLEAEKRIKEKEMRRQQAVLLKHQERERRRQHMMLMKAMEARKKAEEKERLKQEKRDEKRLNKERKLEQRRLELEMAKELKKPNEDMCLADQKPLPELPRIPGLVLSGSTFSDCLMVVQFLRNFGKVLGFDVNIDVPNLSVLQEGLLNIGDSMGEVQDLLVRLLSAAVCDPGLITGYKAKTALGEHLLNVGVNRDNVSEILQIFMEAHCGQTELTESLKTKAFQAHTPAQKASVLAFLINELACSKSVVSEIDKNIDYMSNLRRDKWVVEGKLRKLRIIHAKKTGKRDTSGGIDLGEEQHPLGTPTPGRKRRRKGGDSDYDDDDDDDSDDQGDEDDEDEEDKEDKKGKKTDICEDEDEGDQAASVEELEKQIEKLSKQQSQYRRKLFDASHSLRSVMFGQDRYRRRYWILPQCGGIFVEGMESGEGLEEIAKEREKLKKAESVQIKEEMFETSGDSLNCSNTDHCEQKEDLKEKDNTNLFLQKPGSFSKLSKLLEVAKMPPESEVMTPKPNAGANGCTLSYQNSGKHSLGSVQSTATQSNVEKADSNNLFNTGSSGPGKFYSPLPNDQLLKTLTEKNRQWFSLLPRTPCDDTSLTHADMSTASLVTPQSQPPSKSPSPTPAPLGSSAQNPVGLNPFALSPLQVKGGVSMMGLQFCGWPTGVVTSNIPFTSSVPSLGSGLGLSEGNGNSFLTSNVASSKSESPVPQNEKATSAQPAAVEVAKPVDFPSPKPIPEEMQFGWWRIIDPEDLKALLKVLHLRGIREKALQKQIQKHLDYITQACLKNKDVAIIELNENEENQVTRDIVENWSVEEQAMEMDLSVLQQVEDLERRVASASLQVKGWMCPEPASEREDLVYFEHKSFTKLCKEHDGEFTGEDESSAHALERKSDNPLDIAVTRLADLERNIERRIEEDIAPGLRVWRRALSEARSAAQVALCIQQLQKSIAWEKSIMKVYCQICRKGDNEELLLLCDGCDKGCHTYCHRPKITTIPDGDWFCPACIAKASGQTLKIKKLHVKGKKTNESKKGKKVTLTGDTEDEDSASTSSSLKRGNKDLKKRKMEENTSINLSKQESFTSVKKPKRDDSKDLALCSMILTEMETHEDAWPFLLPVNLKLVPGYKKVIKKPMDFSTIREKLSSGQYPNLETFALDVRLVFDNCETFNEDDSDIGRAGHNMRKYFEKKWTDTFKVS

SMILES | Potency | activity change, negative = inhibition
O=C(Nc1nc2c(s1)CCCC2)c1ccc2ncsc2c1 | inconclusive: 79.4 µM [inhibitor, single point] | –
COCCn1c(CNC(=O)c2cccc(N(C)C)c2)nc2cccnc21 | – | inactive: -2.14%
CCNc1nc(NCC)n2c(SCC(=O)Nc3ccc(CC)cc3)nnc2n1 | – | inactive: -32.7%
N#Cc1c(-c2ccccc2Cl)noc1/C=C/Nc1ccc(C(=O)O)cc1 | inconclusive: 100 µM [inhibitor, single point] | –
O=C(NC1CCCCC1)C(c1ccccc1)N1CCc2ccccc21 (stereo not given) | inconclusive: 79.4 µM [inhibitor, single point] | –
Cc1ccccc1Cn1cc(CCC(=O)NC(C)c2ccccc2)c2ccccc21 (stereo not given) | – | inactive: -1.09%
CCCCn1c(N)c(N(CCOC)C(=O)c2ccc(N3CCCC3)c([N+](=O)[O-])c2)c(=O)[nH]c1=O | – | inactive: -37.5%
COc1ccc(C2C(C(N)=O)=C(C)Nc3nc(CCCO)nn32)cc1OC (stereo not given) | – | inactive: -14.3%
COc1ccc(O)c(/C=N/NC(=S)NCCc2ccccc2)c1 | inconclusive: 25.1 µM [inhibitor, full curve] | –
COc1cccc(-c2cn3c(n2)sc2cc(C(=O)NC4CCCCCC4)ccc23)c1 | inconclusive: 89.1 µM [inhibitor, single point] | –
C=CCC(C)(NCc1ccccc1)c1ccccc1 (stereo not given) | – | inactive: 9.25%
O=C(NC(=S)Nc1ccc(N2CCOCC2)c(Cl)c1)c1cccs1 | active: 35.5 µM | –
Clc1cccc(N2CCN(Cc3ccc(Br)o3)CC2)c1 | inconclusive: 79.4 µM [inhibitor, single point] | –
Nc1nnnn1/N=C/c1ccc(N2CCCCC2)c([N+](=O)[O-])c1 | inconclusive: 70.8 µM [inhibitor, single point] | –
Cc1ccc(-c2nn(-c3ccccc3)cc2CN(Cc2ccccc2)C(=O)CCC(=O)O)o1 | inconclusive: 56.2 µM [inhibitor, single point] | –
CC(C)c1ccc(NC2CCCN(C(=O)c3cccc(N4CCNC4=O)c3)C2)cc1 (stereo not given) | inconclusive: 25.1 µM [inhibitor, full curve] | –
COc1cc(C(=O)N/N=C/c2ccc(OC(=O)c3ccccc3)c(OC)c2)ccc1O | – | inactive: -18.8%
NS(=O)(=O)c1ccc(Nc2nc(-c3ccc(O)cc3O)cs2)cc1 | inconclusive: 89.1 µM [inhibitor, single point] | –
Cc1[nH]c2c(ccc3ccccc32)c1C1C(CCN)C1(C)C (stereo not given) | active: 56.2 µM | –
COc1ccc(C2C(C#N)=C(N)N(c3sc4c(c3C#N)CCCC4)C3=C2C(=O)CC(C)(C)C3)cc1OC (stereo not given) | inconclusive: 89.1 µM [inhibitor, single point] | –
CC(=O)N1c2ccc(S(=O)(=O)N(C)Cc3ccco3)cc2CC1C (stereo not given) | inconclusive: 79.4 µM [inhibitor, single point] | –
CCOC(=O)c1c(C)[nH]c(C)c1S(=O)(=O)NCCCc1ccco1 | inconclusive: 50.1 µM [inhibitor, partial curve] | –
Cc1c(Cl)cccc1NC(=O)N1CCC(CN2CCCC2)CC1 | – | inactive: -0.0811%
Cc1cccc(NC(=O)CN2C(=O)N/C(=C/c3cc(C)n(C)c3C)C2=O)c1 | inconclusive: 89.1 µM [inhibitor, single point] | –

SMILES | Potency | activity change, negative = inhibition
COc1ccc(N2CCN(C(=O)c3cnc(N4CCCC4)nc3C)CC2)cc1 | – | inactive: -21.6%
COc1ccc2c(c1)c(C(=O)CN1CCN(c3ccccc3)CC1)c(C)n2C | inconclusive: 56.2 µM [inhibitor, partial curve] | –
CC(=O)Nc1ccc(NC2=CC(=O)c3ccccc3C2=O)cc1 | active: 12.6 µM | –
CCOc1ccc(CCNC(=O)C2CCN(c3ncnc4c3nc3n4CCCCC3)CC2)cc1 | – | inactive: -5.17%
CCS(=O)(=O)Nc1cccc(C(=O)O)c1 | inconclusive: 100 µM [inhibitor, single point] | –
c1ccc(CCNc2nc(-c3ccccn3)nc3ccccc23)cc1 | inconclusive: 3.16 µM [inhibitor, full curve] | –
O=C(NCCCN1CCN(c2ccccc2)CC1)c1nnc(Cc2c(F)cccc2Cl)o1 | inconclusive: 35.5 µM [inhibitor, partial curve] | –
COc1ccccc1NC(=O)CSc1n[nH]c(-c2cccnc2)n1 | – | inactive: -17%
O=C(CNC(=O)c1ccccc1F)OC(C(=O)Nc1cc(C(F)(F)F)ccc1Cl)c1ccccc1 (stereo not given) | inconclusive: 3.98 µM [inhibitor, single point] | –
O=C(NCc1ccccn1)C(=O)NCC(c1ccco1)N1CCOCC1 (stereo not given) | inconclusive: 89.1 µM [inhibitor, single point] | –
CSc1nnc(-c2ccncc2)n1/N=C/c1cn(-c2ccccc2)nc1-c1ccc(Cl)cc1 | inconclusive: 20 µM [inhibitor, full curve] | –
COC(=O)C(C)Sc1nnc(Cc2cc(=O)[nH]c(=O)[nH]2)n1-c1cccc(OC)c1 (stereo not given) | – | inactive: 12.4%
Cc1cccc(N2CCN(C(=O)c3ccc4nc(-c5ccco5)c(-c5ccco5)nc4c3)CC2C)c1 (stereo not given) | inconclusive: 44.7 µM [inhibitor, partial curve] | –
Cc1cccc(N2C(=O)C(O)=C(C(=O)c3cccs3)C2c2cccc(Oc3ccccc3)c2)n1 (stereo not given) | inconclusive: 50.1 µM [inhibitor, partial curve] | –
Cc1cccc(N2CCN(C(=O)c3cc(S(=O)(=O)N4CCC(C)CC4)cn3C)CC2)c1C | inconclusive: 56.2 µM [inhibitor, partial curve] | –
Cc1ccc(NCC(=O)Nc2ccc(Br)cc2)cc1C | inconclusive: 39.8 µM [inhibitor, partial curve] | –
COc1cccc(/C=C/C(=O)Nc2ccc3c(c2)OCCO3)c1 | inconclusive: 79.4 µM [inhibitor, single point] | –
CCOc1cccc(C2/C(=C(/O)c3ccc4c(c3)CC(C)O4)C(=O)C(=O)N2CCCn2ccnc2)c1 (stereo not given) | inconclusive: 70.8 µM [inhibitor, single point] | –
COc1cccc(C(=O)N2CCN(Cc3ccccc3[N+](=O)[O-])CC2)c1 | inconclusive: 56.2 µM [inhibitor, partial curve] | –
CCOc1ccc(N2C(=O)C3C(c4ccc(O)cc4)NC(CCSC)(C(=O)OC)C3C2=O)cc1 (stereo not given) | – | inactive: -24%
CCCOP(=O)(OCCC)c1c([N+](=O)[O-])cc(C(F)(F)F)cc1[N+](=O)[O-] | inconclusive: 3.16 µM [inhibitor, full curve, poor fit] | –
Fc1ccc2[nH]c3c(N4CCN(Cc5ccc6c(c5)OCO6)CC4)ncnc3c2c1 | inconclusive: 44.7 µM [inhibitor, partial curve] | –
O=C(Nc1ccc2c(c1)CCCN2C(=O)c1cccs1)c1cccc(C(F)(F)F)c1 | – | inactive: -22.8%
O=C1COc2ccccc2N1Cc1c(F)cccc1Cl | – | inactive: 12.3%

SMILES | Potency | activity change, negative = inhibition
COc1ccc(-n2c(SCC(=O)Nc3nc(C)cs3)nnc2-c2ccoc2C)cc1 | inconclusive: 79.4 µM [inhibitor, single point] | –
Cc1ccc(-n2nc3ccc(NC(=O)c4oc5ccccc5c4C)cc3n2)cc1 | – | inactive: 1.13%
CCOC(=O)c1[nH]c2ccccc2c1NC(=O)c1ccccc1OCC | – | inactive: -11.4%
O=C(O)c1cc(N2C(=O)C3C4C=CC(C4)C3C2=O)ccc1NCc1cccnc1 (stereo not given) | inconclusive: 100 µM [inhibitor, single point] | –
CCCn1c(/N=C/c2c[nH]c3ccccc23)nc2ccccc21 | inconclusive: 44.7 µM [inhibitor, partial curve] | –
CCOC(=O)c1cc(-c2ccccc2)sc1NC(=O)COC | – | inactive: -24.2%
COc1cc(C2NC(C(=O)O)Cc3c2[nH]c2ccccc32)cc(OC)c1OC (stereo not given) | active: 79.4 µM | –
CC(=O)Nc1cc(NC(C)=O)cc(C(=O)N2CCCC3CCCCC32)c1 (stereo not given) | active: 50.1 µM | –
CCN(CC)CCNC(=O)c1ccc(NC(=O)C2CCN(c3ncnc4sc(C)c(C)c34)CC2)cc1 | – | inactive: -14.3%
COc1cc(-c2nc(S(=O)(=O)c3ccc(C)cc3)c(N3CCOCC3)o2)cc(OC)c1OC | inconclusive: 89.1 µM [inhibitor, single point] | –
CCOc1c(Cl)cc(CNc2ccc(N3CCCC3)cc2)cc1OC | active: 20 µM | –
CC(=O)N(/C=C1\SC(=S)N(c2ccccc2)C1=O)c1ccccc1 | inconclusive: 25.1 µM [inhibitor, full curve] | –
COc1cccc(OC)c1C(=O)Oc1ccc2c(c1)O/C(=C\c1ccncc1)C2=O | inconclusive: 11.2 µM [inhibitor, full curve] | –
COc1cc(NC(=O)C2=C(N3CCOCC3)/C(=C\c3ccc(N(C)C)cc3)CCC2)cc(OC)c1OC | active: 39.8 µM | –
COC(=O)c1ccccc1NS(=O)(=O)c1cc2c(cc1C)N(C)CCO2 | inconclusive: 89.1 µM [inhibitor, partial curve] | –
O=C(Nc1ccc(Cl)c(Cl)c1)Nc1nccs1 | – | inactive: -35.4%
COc1ccc(N2C(=O)C(Cl)=C(Nc3ccccc3O)C2=O)cc1 | inconclusive: 79.4 µM [inhibitor, single point] | –
O=C(Nc1ccc(S(=O)(=O)Nc2nccs2)cc1)c1cc(-c2ccncc2)nc2ccccc12 | inconclusive: 39.8 µM [inhibitor, partial curve] | –
CN(C)c1ccc(Nc2ncnc3c2c(-c2ccccc2)cn3-c2cccc(Cl)c2)cc1 | active: 4.47 µM | –
CCCCn1c(/N=C/c2ccc(N(C)C)cc2)nc2ccccc21 | inconclusive: 44.7 µM [inhibitor, partial curve] | –
Cc1ccc(C)c(OCC(=O)NNC(=O)CSC(=S)N2CCCC2)c1 | – | inactive: 0.572%
Cc1cccnc1NC(=O)CSc1ncnc2sc(C)c(C)c12 | inconclusive: 79.4 µM [inhibitor, single point] | –
